In article PMC11995724, “Antibiotic target discovery by integrated phenotypic and activity-based profiling of electrophilic fragments” (Cell chemical biology, 2025):
In all, about 3,200 compounds went through this assay and about 75 (2%) showed an effect of 50% or more. This is one part of the list.

The molecules below were run on T1, S. aureus MSSA476. Settings: relative growth, OD600, TSB; 25 µM; inhibitor.
T1 construct: MSSA476
Design: species or system S. aureus MSSA476 (TSB) or V. cholerae SAD30 (LB); 384-well bacterial growth screen at 25 uM, OD600 relative to DMSO control

Row | SMILES | % of control remaining [%]
1 | COc1cc(C=C(C#N)C(=O)Nc2ccc(F)cc2)cc(Cl)c1O [8-H07, 3-(3-chloro-4-hydroxy-5-methoxyphenyl)-2-cyano-N-(4-fluorophenyl)prop-2-enamide] | 81.9917
2 | C=CC(=O)NCc1ccccc1S(=O)(=O)N1CCCC1 [2-L17, N-{[2-(pyrrolidine-1-sulfonyl)phenyl]methyl}prop-2-enamide] | 128.111
3 | N#CC(=Cc1cccc2ccccc12)C(=O)NCc1ccco1 [8-N15, 2-cyano-N-[(furan-2-yl)methyl]-3-(naphthalen-1-yl)prop-2-enamide] | 108.88
4 | CCc1cccc2c(C(=O)CCl)c[nH]c12 [10-C12, 2-chloro-1-(7-ethyl-1H-indol-3-yl)ethan-1-one] | 103.438
5 | Cc1cc(C)c(-c2csc(NC(=O)CCl)n2)cc1C [4-G17, 2-chloro-N-[4-(2,4,5-trimethylphenyl)-1,3-thiazol-2-yl]acetamide] | 67.8418
6 | C=CC(=O)N1CCC(C(=O)Nc2ccc(N)c([N+](=O)[O-])c2)CC1 [3-E20, N-(4-amino-3-nitrophenyl)-1-(prop-2-enoyl)piperidine-4-carboxamide] | 105.181
7 | O=C(CCl)NC1CCCCCC1 [5-H16, 2-chloro-N-cycloheptylacetamide] | 82.6958
8 | O=C(CCl)Nc1ccc2c(c1)oc1ccccc12 [6-A13, 2-chloro-N-{8-oxatricyclo[7.4.0.0,2,7]trideca-1(9),2(7),3,5,10,12-hexaen-5-yl}acetamide] | 102.098
9 | C=CC(=O)NCCc1ccc(S(N)(=O)=O)cc1 [2-B13, N-[2-(4-sulfamoylphenyl)ethyl]prop-2-enamide] | 155.614
10 | C=CC(=O)Nc1ccc(N2CCCCC2)c(F)c1 [2-I22, N-[3-fluoro-4-(piperidin-1-yl)phenyl]prop-2-enamide] | 91.2097
11 | CN(CC(=O)Nc1ccc(Cl)c(C(F)(F)F)c1)C(=O)CCl [4-E19, 2-chloro-N-({[4-chloro-3-(trifluoromethyl)phenyl]carbamoyl}methyl)-N-methylacetamide] | 114.721
12 | Cc1nn(C)c(C)c1C=C(C#N)C(=O)Nc1ccccc1Cl [9-F11, N-(2-chlorophenyl)-2-cyano-3-(1,3,5-trimethyl-1H-pyrazol-4-yl)prop-2-enamide] | 81.4981
13 | CN(CC(=O)NC1CCC(O)CC1)C(=O)CCl (stereo not drawn) [7-L08, 2-chloro-N-{[(4-hydroxycyclohexyl)carbamoyl]methyl}-N-methylacetamide] | 92.3077
14 | O=C(CCl)Nc1cccc(NC(=O)c2ccccc2)c1 [6-A03, N-[3-(2-chloroacetamido)phenyl]benzamide] | 76.1463
15 | N#CC(=Cc1ccsc1)C(=O)Nc1ccccc1Cl [9-O05, N-(2-chlorophenyl)-2-cyano-3-(thiophen-3-yl)prop-2-enamide] | 99.176
16 | CC(Cl)C(=O)N(C)C[C@@H]1C[C@H](F)CN1c1ccnc(N(C)C)n1 (stereo partly drawn) [7-K16, 2-chloro-N-{[(2S,4S)-1-[2-(dimethylamino)pyrimidin-4-yl]-4-fluoropyrrolidin-2-yl]methyl}-N-methylpropanamide] | 97.6452
17 | O=C(CCl)N(Cc1ccco1)c1ccccc1 [4-L14, 2-chloro-N-[(furan-2-yl)methyl]-N-phenylacetamide] | 118.914
18 | C=CC(=O)N(C)CC(=O)N1CCN(C(=O)C2CCCCC2)CC1 [3-O10, N-[2-(4-cyclohexanecarbonylpiperazin-1-yl)-2-oxoethyl]-N-methylprop-2-enamide] | 98.5633
19 | C=CC(=O)N1CCC(C(=O)Nc2ccc3c(c2)CCN3C(N)=O)CC1 [3-E16, 5-[1-(prop-2-enoyl)piperidine-4-amido]-2,3-dihydro-1H-indole-1-carboxamide] | 96.8219
20 | C=CC(=O)N1CCC(C(=O)NCc2ccccc2-n2cccn2)CC1 [3-N03, 1-(prop-2-enoyl)-N-{[2-(1H-pyrazol-1-yl)phenyl]methyl}piperidine-4-carboxamide] | 97.1702
21 | CC(Cl)C(=O)Nc1cccc(S(=O)(=O)N(C)C)c1 (stereo not drawn) [5-A07, 2-chloro-N-[3-(dimethylsulfamoyl)phenyl]propanamide] | 96.9035
22 | CC(Cl)C(=O)Nc1ccccc1C#N (stereo not drawn) [6-A11, 2-chloro-N-(2-cyanophenyl)propanamide] | 83.6585
23 | C=CC(=O)N1CCC(CC(C)(C)C)C1 (stereo not drawn) [2-O19, 1-[3-(2,2-dimethylpropyl)pyrrolidin-1-yl]prop-2-en-1-one] | 113.838

Row | SMILES | % of control remaining [%]
24 | C=CC(=O)NCc1ccsc1-n1cccc1 [1-K08, N-{[2-(1H-pyrrol-1-yl)thiophen-3-yl]methyl}prop-2-enamide] | 111.824
25 | C=CC(=O)N1CCC(Cc2nc3ccc(F)cc3o2)CC1 [3-O07, 1-{4-[(6-fluoro-1,3-benzoxazol-2-yl)methyl]piperidin-1-yl}prop-2-en-1-one] | 87.4184
26 | C=CC(=O)N1CC(S(=O)(=O)N2CCOCC2)C1 [2-A16, 1-[3-(morpholine-4-sulfonyl)azetidin-1-yl]prop-2-en-1-one] | 154.221
27 | Cc1nn(C)c(C)c1NC(=O)C(C)Cl (stereo not drawn) [6-C07, 2-chloro-N-(1,3,5-trimethyl-1H-pyrazol-4-yl)propanamide] | 84.6829
28 | N#CC(=Cc1cnc(-c2ccccc2)nc1)C(=O)NCc1ccco1 [9-M14, 2-cyano-N-[(furan-2-yl)methyl]-3-(2-phenylpyrimidin-5-yl)prop-2-enamide] | 90.1873
29 | N#CC(=Cc1cccc(Cl)c1)C(=O)NCc1ccccc1 [9-L13, N-benzyl-3-(3-chlorophenyl)-2-cyanoprop-2-enamide] | 76.7041
30 | C=CC(=O)N(C)CC(=O)NC1CCCN(c2cc(C)nc(C)n2)C1 (stereo not drawn) [3-A12, N-({[1-(2,6-dimethylpyrimidin-4-yl)piperidin-3-yl]carbamoyl}methyl)-N-methylprop-2-enamide] | 162.995
31 | Cc1ccc(C(CNC(=O)C(C)Cl)N2CCOCC2)s1 (stereo not drawn) [7-N13, 2-chloro-N-[2-(5-methylthiophen-2-yl)-2-(morpholin-4-yl)ethyl]propanamide] | 81.3187
32 | Cc1ccc(-n2c(C)cc(C(=O)CCl)c2C)cc1F [10-C06, 2-chloro-1-[1-(3-fluoro-4-methylphenyl)-2,5-dimethyl-1H-pyrrol-3-yl]ethan-1-one] | -0.3125
33 | COc1cc(C=C(C#N)C(=O)Nc2ccc3c(c2)OCCO3)ccc1O [8-N06, 2-cyano-N-(2,3-dihydro-1,4-benzodioxin-6-yl)-3-(4-hydroxy-3-methoxyphenyl)prop-2-enamide] | 100.913
34 | COc1ccc(C(C)(C)C)cc1NC(=O)CCl [4-C07, N-(5-tert-butyl-2-methoxyphenyl)-2-chloroacetamide] | 102.525
35 | CC(Cl)C(=O)Nc1cccc(Cl)c1 (stereo not drawn) [5-H22, 2-chloro-N-(3-chlorophenyl)propanamide] | 77.9599
36 | CCC1CN(CCn2cccn2)CCN1C(=O)C(C)Cl (stereo not drawn) [7-F07, 2-chloro-1-{2-ethyl-4-[2-(1H-pyrazol-1-yl)ethyl]piperazin-1-yl}propan-1-one] | 114.6
37 | N#CC(=Cc1ccc(-c2cccc([N+](=O)[O-])c2)o1)C(=O)N1CCOCC1 [8-C07, 2-(morpholine-4-carbonyl)-3-[5-(3-nitrophenyl)furan-2-yl]prop-2-enenitrile] | 112.863
38 | NS(=O)(=O)c1ccc(CNC(=O)CCl)cc1 [4-P12, 2-chloro-N-[(4-sulfamoylphenyl)methyl]acetamide] | 97.1891
39 | Cc1cc(C=C(C#N)C(=O)Nc2nccs2)ccc1-n1cncn1 [9-J14, 2-cyano-3-[3-methyl-4-(1H-1,2,4-triazol-1-yl)phenyl]-N-(1,3-thiazol-2-yl)prop-2-enamide] | 105.169
40 | C=CC(=O)NCC1(c2nc(-c3ccccc3)cs2)CCOCC1 [2-A11, N-{[4-(4-phenyl-1,3-thiazol-2-yl)oxan-4-yl]methyl}prop-2-enamide] | 120.453
41 | Cn1cc(NC(=O)CCl)c(C(=O)NC2CCC2)n1 [5-A22, 4-(2-chloroacetamido)-N-cyclobutyl-1-methyl-1H-pyrazole-3-carboxamide] | 108.561
42 | CC(Cl)C(=O)NCc1nc(-c2cccc(C#N)c2)c[nH]1 (stereo not drawn) [6-F09, 2-chloro-N-{[4-(3-cyanophenyl)-1H-imidazol-2-yl]methyl}propanamide] | 86.7317
43 | C=CC(=O)Nc1cccc2ccccc12 [1-G10, N-(naphthalen-1-yl)prop-2-enamide] | 100.923
44 | Cc1ccc(NC(=O)CCl)cc1S(=O)(=O)N(C)C [4-A09, 2-chloro-N-[3-(dimethylsulfamoyl)-4-methylphenyl]acetamide] | 89.5665
45 | O=C(CCl)N(Cc1ccc(Cl)c([N+](=O)[O-])c1)c1ccccc1 [6-H06, 2-chloro-N-[(4-chloro-3-nitrophenyl)methyl]-N-phenylacetamide] | 8.195
